Test results from paper PMC9399231.
These are yes or no findings as the source states them, for the method shown. In cells and extracts the contact can be indirect. Some binding calls cover weakened binding; strength is not graded here.

By UniProt entry, the sequences of proteins in these tests, tags left out.
UniProt O43474: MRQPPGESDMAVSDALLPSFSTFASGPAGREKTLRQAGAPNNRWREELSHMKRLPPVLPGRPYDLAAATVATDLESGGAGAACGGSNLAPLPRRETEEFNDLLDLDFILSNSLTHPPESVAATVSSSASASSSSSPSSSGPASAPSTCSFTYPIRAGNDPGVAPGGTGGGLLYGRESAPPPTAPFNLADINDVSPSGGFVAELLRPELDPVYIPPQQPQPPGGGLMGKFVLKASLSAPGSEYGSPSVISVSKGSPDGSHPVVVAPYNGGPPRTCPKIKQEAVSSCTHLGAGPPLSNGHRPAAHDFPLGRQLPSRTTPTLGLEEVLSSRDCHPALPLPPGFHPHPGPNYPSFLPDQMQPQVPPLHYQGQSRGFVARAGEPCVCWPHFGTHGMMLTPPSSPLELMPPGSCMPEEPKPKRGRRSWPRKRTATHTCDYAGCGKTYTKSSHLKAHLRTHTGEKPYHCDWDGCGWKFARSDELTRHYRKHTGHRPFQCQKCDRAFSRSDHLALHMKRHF
UniProt F7F8L9: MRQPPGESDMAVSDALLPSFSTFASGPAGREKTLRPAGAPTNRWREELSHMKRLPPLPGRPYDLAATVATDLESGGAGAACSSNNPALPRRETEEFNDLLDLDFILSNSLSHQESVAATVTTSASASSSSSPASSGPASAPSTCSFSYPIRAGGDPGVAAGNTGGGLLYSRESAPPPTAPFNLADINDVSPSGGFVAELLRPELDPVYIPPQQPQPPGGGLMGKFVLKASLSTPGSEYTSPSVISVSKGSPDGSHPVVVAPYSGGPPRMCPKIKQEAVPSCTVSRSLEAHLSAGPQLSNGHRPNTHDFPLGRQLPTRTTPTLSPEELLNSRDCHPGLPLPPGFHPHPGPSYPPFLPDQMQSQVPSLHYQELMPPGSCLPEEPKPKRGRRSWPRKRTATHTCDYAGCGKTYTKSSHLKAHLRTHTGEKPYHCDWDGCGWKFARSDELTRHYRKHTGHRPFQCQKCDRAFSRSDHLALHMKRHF
UniProt Q8TAQ2: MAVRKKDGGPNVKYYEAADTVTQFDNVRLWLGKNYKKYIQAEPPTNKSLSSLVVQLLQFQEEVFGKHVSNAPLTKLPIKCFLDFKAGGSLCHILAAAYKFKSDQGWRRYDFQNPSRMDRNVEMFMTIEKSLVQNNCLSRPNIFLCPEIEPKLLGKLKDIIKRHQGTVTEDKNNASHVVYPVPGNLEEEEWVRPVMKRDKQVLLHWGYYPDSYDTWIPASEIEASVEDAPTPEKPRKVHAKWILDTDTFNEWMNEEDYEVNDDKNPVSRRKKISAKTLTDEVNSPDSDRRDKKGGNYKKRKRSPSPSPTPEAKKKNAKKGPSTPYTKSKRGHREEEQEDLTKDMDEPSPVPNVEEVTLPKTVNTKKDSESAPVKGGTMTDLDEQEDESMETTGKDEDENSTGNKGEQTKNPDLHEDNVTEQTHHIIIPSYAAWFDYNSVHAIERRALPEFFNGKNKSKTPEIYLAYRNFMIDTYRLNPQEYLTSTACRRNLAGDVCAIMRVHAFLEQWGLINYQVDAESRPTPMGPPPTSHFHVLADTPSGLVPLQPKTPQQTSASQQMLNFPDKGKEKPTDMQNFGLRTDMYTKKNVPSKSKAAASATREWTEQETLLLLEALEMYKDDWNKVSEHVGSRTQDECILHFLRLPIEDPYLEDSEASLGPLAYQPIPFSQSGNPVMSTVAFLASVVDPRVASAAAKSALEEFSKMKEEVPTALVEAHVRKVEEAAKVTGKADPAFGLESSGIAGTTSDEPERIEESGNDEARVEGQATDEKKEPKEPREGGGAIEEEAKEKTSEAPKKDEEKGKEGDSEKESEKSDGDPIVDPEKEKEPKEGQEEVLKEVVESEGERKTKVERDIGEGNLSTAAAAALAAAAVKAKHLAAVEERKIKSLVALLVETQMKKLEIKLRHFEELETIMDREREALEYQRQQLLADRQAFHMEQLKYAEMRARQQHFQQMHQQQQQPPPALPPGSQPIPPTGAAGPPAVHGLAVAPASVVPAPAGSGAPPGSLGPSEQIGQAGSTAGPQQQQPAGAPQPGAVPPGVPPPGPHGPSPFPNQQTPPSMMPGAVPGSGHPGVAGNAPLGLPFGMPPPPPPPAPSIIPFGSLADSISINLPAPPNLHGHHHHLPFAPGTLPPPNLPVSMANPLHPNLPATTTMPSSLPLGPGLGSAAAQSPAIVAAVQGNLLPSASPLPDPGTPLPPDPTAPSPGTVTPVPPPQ
UniProt Q8K1P7: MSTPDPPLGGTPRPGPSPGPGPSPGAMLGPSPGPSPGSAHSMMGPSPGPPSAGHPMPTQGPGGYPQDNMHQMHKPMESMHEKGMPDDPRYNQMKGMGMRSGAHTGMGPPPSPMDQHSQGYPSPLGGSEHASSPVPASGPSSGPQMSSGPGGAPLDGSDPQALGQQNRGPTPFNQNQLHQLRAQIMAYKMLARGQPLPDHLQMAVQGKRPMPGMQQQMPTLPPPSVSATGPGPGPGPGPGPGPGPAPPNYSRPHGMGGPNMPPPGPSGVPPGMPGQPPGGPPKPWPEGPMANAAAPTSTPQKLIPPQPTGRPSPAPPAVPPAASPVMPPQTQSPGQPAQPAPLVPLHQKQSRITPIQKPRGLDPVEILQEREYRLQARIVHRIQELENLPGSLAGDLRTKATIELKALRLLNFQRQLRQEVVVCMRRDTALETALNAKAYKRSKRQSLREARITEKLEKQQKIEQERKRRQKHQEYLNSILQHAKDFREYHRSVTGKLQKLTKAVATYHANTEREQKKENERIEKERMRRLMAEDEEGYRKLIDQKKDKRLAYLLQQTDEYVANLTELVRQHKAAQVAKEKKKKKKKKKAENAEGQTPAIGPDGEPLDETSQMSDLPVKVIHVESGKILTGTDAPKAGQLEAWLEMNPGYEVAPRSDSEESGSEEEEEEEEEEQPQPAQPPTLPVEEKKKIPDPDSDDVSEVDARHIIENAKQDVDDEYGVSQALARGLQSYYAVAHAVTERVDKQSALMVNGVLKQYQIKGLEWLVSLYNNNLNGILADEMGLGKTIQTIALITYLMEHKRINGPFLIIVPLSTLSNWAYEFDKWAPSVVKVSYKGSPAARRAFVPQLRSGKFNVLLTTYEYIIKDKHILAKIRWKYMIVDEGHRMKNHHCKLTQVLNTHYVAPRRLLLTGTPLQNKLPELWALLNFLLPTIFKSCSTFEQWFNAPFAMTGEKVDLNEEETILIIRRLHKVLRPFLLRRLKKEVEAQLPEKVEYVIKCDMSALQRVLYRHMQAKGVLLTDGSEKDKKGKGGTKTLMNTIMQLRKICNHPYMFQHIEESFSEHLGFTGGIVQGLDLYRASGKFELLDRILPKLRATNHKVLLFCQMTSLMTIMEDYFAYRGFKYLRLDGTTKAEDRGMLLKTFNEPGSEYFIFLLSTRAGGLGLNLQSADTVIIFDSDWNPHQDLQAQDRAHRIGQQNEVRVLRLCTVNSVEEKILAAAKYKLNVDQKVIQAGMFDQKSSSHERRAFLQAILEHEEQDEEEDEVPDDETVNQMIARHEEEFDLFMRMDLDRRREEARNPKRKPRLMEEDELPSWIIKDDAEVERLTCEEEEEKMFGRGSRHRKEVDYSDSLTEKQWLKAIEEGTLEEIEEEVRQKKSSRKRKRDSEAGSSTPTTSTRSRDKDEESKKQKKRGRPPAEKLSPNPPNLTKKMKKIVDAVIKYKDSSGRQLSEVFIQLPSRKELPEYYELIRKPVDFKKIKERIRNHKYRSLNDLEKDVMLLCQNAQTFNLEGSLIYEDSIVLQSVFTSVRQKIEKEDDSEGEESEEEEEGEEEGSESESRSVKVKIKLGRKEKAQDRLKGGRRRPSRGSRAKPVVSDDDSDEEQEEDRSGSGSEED
UniProt P51532: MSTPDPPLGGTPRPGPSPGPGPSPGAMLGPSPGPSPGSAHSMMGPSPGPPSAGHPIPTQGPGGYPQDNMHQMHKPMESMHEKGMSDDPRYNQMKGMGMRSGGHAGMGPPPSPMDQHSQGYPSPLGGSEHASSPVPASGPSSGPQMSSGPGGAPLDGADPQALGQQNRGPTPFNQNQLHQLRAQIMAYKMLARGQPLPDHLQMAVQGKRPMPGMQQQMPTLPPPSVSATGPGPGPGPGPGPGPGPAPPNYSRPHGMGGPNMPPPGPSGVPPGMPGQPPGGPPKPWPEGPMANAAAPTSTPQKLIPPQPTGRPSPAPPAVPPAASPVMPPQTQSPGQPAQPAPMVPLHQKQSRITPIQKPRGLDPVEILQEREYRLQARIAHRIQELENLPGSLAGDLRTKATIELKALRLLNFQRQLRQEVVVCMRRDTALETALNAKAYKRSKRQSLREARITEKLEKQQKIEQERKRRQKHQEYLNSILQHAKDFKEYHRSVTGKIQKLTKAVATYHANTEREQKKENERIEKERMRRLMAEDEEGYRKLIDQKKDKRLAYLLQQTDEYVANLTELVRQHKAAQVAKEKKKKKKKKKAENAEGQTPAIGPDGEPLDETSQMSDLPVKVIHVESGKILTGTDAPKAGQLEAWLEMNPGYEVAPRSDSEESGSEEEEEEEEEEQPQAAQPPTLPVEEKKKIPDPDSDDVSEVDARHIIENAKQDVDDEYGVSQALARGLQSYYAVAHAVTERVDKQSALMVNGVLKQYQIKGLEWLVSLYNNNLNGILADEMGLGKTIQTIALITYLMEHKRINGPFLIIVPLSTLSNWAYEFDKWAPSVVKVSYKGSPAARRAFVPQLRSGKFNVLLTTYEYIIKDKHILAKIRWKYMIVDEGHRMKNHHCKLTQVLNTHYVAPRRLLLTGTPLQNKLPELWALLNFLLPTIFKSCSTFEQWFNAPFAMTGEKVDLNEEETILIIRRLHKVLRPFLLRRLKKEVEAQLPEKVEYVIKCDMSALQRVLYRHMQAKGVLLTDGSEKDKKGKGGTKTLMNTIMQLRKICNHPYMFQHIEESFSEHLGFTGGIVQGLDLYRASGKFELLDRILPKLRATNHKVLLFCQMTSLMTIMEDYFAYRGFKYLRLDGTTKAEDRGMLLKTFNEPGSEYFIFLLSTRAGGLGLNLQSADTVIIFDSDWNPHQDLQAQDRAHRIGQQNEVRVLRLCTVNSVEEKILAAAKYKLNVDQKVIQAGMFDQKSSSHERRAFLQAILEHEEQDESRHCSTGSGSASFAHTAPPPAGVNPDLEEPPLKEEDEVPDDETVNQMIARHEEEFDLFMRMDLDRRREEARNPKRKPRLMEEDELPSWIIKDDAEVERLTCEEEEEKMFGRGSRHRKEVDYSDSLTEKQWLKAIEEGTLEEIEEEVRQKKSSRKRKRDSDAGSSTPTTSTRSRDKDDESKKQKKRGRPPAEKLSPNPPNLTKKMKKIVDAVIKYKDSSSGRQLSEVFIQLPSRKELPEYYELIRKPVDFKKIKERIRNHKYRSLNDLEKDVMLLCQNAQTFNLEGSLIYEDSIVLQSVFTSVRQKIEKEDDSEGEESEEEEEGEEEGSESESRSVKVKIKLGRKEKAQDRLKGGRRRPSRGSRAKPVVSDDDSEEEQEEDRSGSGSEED

Tests used:
[1] = target: KLF4 (human (endogenous in PAEC)) (UniProt O43474); test: proximity ligation; Duolink PLA in PAEC exposed to 15 dyn/cm^2 of LSS or ST conditions for 24 h, fixed with 4% PFA; rabbit anti-KLF4 and mouse anti-BRG1 or anti-SMARCC2; epitopes within 40 nm
[2] = target: KLF4 (rat) (rat (endogenous in lung tissue)) (UniProt F7F8L9); test: condition: only at bifurcations exposed to disturbed shear stress; proximity ligation; modified Duolink PLA in 350 μm sections of healthy rat lung; bifurcations exposed to disturbed shear stress (DSS)
[3] = target: KLF4 (rat) (rat (endogenous in lung tissue)) (UniProt F7F8L9); test: proximity ligation; modified Duolink PLA in 350 μm sections of healthy rat lung; bifurcations exposed to disturbed shear stress (DSS)
[4] = target: KLF4 (rat) (rat (endogenous in lung tissue)) (UniProt F7F8L9); test: proximity ligation; modified Duolink PLA in 350 μm sections of healthy rat lung; straight parts of the vessel exposed to LSS

Substance: SMARCC2 (from UniProt Q8TAQ2 1-1214)
- binding [1]: binds

Substance: BRG1 (rat) (from UniProt Q8K1P7 1-1613)
- binding [2]: no binding
- binding [3]: binds weakly
- binding [4]: binds

Substance: Brahma-Related Gene 1 (BRG1) (from UniProt P51532 1-1647)
- binding [1]: binds
